At least one peptide structure holds a part that was inferred or is arguable (an end, a ring closure or a residue). Some compounds share one wording; it may come from a single statement. Where no end group is shown, it is not given here.
Assays:
[1] = ORAC-FL assay (antioxidant / radical scavenging activity); settings: for ORAC-FL± SEM: synthetic peptides, n=3; for radical scavenging activity: compared with Trolox
SHR rats = assay: Systolic blood pressure after single oral dose, tail-cuff method; assay type: in vivo; settings: 5 mg kg^-1 single dose; for antihypertensive effect (change in SBP): 2-24 hours post-administration; for maximum reduction in SBP: SEQ ID NO: 1 maximum at 6 hours post-administration

Molecule | ORAC-FL± SEM [1] | radical scavenging activity [1] | antihypertensive effect (change in SBP) (SHR rats) | maximum reduction in SBP (SHR rats) [mmHg]
FVAPFPEV [FVAPFPEV] | <0.025 µmol equiv Trolox/µmol peptide |  |  | 
RYLGY [RYLGY] | 2.829 ± 0.040 µmol equiv Trolox/µmol peptide | at least two times higher than Trolox | lowered SBP in a progressive and maintained manner during most of the time of study | 25±3
CC(C)[C@H](N)C(=O)N1CCC[C@H]1C(=O)N1CCC[C@H]1C(=O)O [VPP, reference compound] |  |  |  | 20±5
YQKFPQY [YQKFPQY] | 2.033 ± 0.077 µmol equiv Trolox/µmol peptide | at least two times higher than Trolox | small and short effect | 
AYFYPEL [AYFYPEL] | 3.216 ± 0.114 µmol equiv Trolox/µmol peptide | at least two times higher than Trolox | significant effect but a smaller and less maintained effect | ~20±5
HLPLPLL [HLPLPLL] | 0.060 ± 0.002 µmol equiv Trolox/µmol peptide |  |  | 
VAPFPEVF [VAPFPEVF] | 0.046 ± 0.001 µmol equiv Trolox/µmol peptide |  |  | 

From patent EP2253324A1, “Use of a casein-derived peptide and compositions thereof as antihypertensive” (CONSEJO SUPERIOR DE INVESTIGACIONES CIENTIFICAS, priority 2009, dated 2010)
